Measured values taken from paper PMC4242493.
Some of the results follow. The list includes weakly bound sequences.

These sequences were tested against MaxL homodimer (UniProt P61244) (assay: universal protein-binding microarray (PBM)). Details: PBS-based mixture, 10 nM His-tagged protein dimer, 2% milk, 200 ng/uL BSA, 50 ng/uL salmon testes DNA, 0.02% TX-100; detection with Alexa 488 anti-His …; high values mean tight binding; most listed sequences are background and not binding sites; double strand, one strand shown.
Chain of UniProt P61244 (P61244 whole entry): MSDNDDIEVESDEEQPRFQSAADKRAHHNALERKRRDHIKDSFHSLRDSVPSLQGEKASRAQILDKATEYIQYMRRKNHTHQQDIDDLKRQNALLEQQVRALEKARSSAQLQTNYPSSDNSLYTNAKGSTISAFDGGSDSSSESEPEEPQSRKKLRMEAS

Sequence	binding signal (normalized occupancy)
TATGGAGA	0.0866
AAGAAGTA	0.0727
ATTGCCAC	0.0774
CGAACCCC	0.077
ATCAAGGA	0.0765
AGCGGCAA	0.0701
CACCATTC	0.0799
GTAAAATA	0.0792
TCAATCGA	0.0766
GAGACAAA	0.0718
GAAGTCCA	0.0692
AGAAGCAG	0.0737
AAAAGCAG	0.0682
ACGACACC	0.0753
ATAGTATA	0.0859
AGTGAGCA	0.0794
GTTGAGGA	0.0716
AACTGCCT	0.0759
AGGACGTC	0.0754
CAGCGGAG	0.0713
AAATCTCC	0.0696
CCCTTTAC	0.077
TCAAGCAA	0.0732
CAAATCAG	0.083
ATACGTTA	0.0826

Sequence	binding signal (normalized occupancy)
AAGTGCGA	0.0687
GAACATTA	0.0812
GATCAATC	0.0738
ATTGGAGA	0.0755
CCTCATGA	0.0951
ACACGAGG	0.144
ATCGCGGA	0.0705
ATTGCCAA	0.0765
GTGGCCTA	0.0811
CATGTGCA	0.149
CAGAAATA	0.0807
ATAAGCCA	0.0765
GGTTTGAA	0.0749
AGTTACAG	0.0738
TCACTGAA	0.073
GGAGCCCA	0.0741
AGCGTTCG	0.0661
AGCCTCGA	0.073
TCGGATCA	0.075
GAATCTAC	0.0778
ATTTAAGC	0.0765
GCACATAA	0.0796
CAAATCCG	0.0718
CGCGTCCG	0.0754
CATCACAC	0.0905

Sequence	binding signal (normalized occupancy)
TATCCCGA	0.0764
ACAAGGAA	0.0781
ACCCTCAG	0.0731
CTGCAAAC	0.0766
GAAGGGAA	0.0698
AGTTCAGA	0.0703
ACGTAGCT	0.0767
CGAGGGAG	0.0757
GAGCAACC	0.07
AGTGAACG	0.0728
CGGTTTCC	0.0712
ACGCACGG	0.0828
TACATTGA	0.0774
CGGCTAGA	0.0678
AAGGGATG	0.0764
CGTAAGAG	0.0734
AACATATG	0.1
CGCGAGCA	0.0818
CGGTGTCA	0.0786
CCTTATCG	0.0766
GGGCCATA	0.074
CTCAGGAG	0.0722
AAATCTGG	0.0714
TGCAGCAA	0.0766
GCGCAGCC	0.0617

Sequence	binding signal (normalized occupancy)
CTCTAGGC	0.0692
CGCAGCCG	0.071
AGAACAGG	0.0731
CTCCTGGA	0.0735
ACTGGATC	0.0721
ATCCACTA	0.0778
AGTGGATA	0.0812
CCATATAC	0.0895
AATTTGTA	0.0777
CAGTCGAG	0.0685
ACGTATCA	0.0795
CATCGGTA	0.0736
GAACTCGC	0.0767
GCGTTCAC	0.0758
AGTTCTCC	0.074
GCGTGAAC	0.0873
GGTTAGCA	0.0754
ACAAATGT	0.079
AAATCGGC	0.0666
AGCGGTAT	0.0792
ATTGAAAT	0.0772
ACAAAATA	0.0817
CACCACGA	0.082
CTCCCCCA	0.0787
GCGTAAGC	0.0709

Sequence	binding signal (normalized occupancy)
GGGCTAGA	0.0765
CAGGATAC	0.0735
GCGTATTA	0.0746
CAATCTCC	0.0739
CATGAAAA	0.081
CCCTTGGC	0.0696
AAACTTAT	0.0789
AAGACCAG	0.0728
GCCGACAC	0.0731
ACGACCTG	0.0764
ACGAGTCG	0.0795
ATCGACGA	0.0701
TATGCGCA	0.0804
CACCTGAC	0.0973
ACAACTTC	0.0755
CCAACCCA	0.0759
CGTTGCGA	0.0768
CTATTCAG	0.0714
AGTGAAGC	0.0734
AACAATAC	0.076
GCAGACCC	0.0687
AAGTCGAT	0.0737
GCAGTGTA	0.0735
AGCTCCGA	0.0643
GTCACGTA	0.0838

Sequence	binding signal (normalized occupancy)
CGTGAGAG	0.0931
ATCCTATC	0.0821
TTGAAAAA	0.0753
GCTTCGGA	0.0717
AGAATAAA	0.0773
CAGATCTC	0.0805
CAAGGCAA	0.075
GAACGCCA	0.0739
GATTGGAC	0.0752
GAAATAAC	0.0798
CTACCGAC	0.0727
GAACGTCA	0.0757
ACACAGGC	0.0789
GGTTTCAC	0.0735
ACAGGCTC	0.0724
ACGCAAGG	0.081
AACCAAGT	0.0721
ACAGTACT	0.0757
AGCGGCCA	0.067
AGGGTAAT	0.0774
ATCTGCCA	0.0792
ACGTCACG	0.0919
ACTTCAGG	0.0725
CCTTAAAG	0.0719
CCCCCACG	0.0958

Sequence	binding signal (normalized occupancy)
ACAGGCGA	0.0709
GTTGCTTA	0.0771
CATCTTGC	0.0754
ATTTACTG	0.0772
GAGCTGTA	0.0768
ACATATAC	0.0883
ATGAGATC	0.0897
CTGAATCC	0.0737
ATCAGGAC	0.0791
CAATTCGA	0.0737
CCCGCTTA	0.0716
ATGTTGAG	0.0802
AACAGACA	0.0753
AACGTCTG	0.0724
ATTGTTCG	0.0724
AGAATGGC	0.0756
AAATGGCA	0.0805
TACTTGCA	0.0788
ATGGTTGC	0.0766
GGCATTAC	0.0758
GCTGAATA	0.0764
AACTCAAT	0.0754
CAAGTAAA	0.0734
GAGAATGA	0.0781
ACCAGAGA	0.0756

Sequence	binding signal (normalized occupancy)
AAGTTGTC	0.0753
AACCAATG	0.0758
GACCGGTC	0.0725
CATACACG	0.097
GACTAGTC	0.0674
TCAATTGA	0.0775
GAACTTAC	0.0729
AAGGCCCA	0.0733
AGCCCGAT	0.0746
CCCGAGCA	0.0798
GACAAGAC	0.0699
ACAAACTA	0.0728
AAGGAGTC	0.0727
ACTAATAC	0.0751
AAGAGGTA	0.0739
CGGCCCGC	0.0677
CTCGCTCA	0.0727
ACTAGAAT	0.0797
AGGATCCA	0.0741
GCTTCCCA	0.0741
ATGTGACC	0.0865
ACCATCCG	0.0823
AAATTAAA	0.0677
AAGTACGG	0.0779
GCGTGAGA	0.0965

Sequence	binding signal (normalized occupancy)
GCGGTGAA	0.0716
AGAGCACC	0.0746
CCTGTATA	0.0836
GCCACCCA	0.0719
CCAAAGGA	0.072
GTTATTGA	0.0784
ACATAATA	0.0836
AGTAATGA	0.0801
CAGCAACC	0.0703
AACTAGCG	0.068
CAACACTA	0.0772
GCAGGAAA	0.0727
ATGGATCA	0.0812
ACAGGTCA	0.0797
CCCACTAC	0.0826
TGCGAGAA	0.0792
AAACGCGC	0.0747
GCAGGGCC	0.0761
CCCAAGTC	0.0748
CAGGTATA	0.0785
CACATAGG	0.0834
CAACGAAC	0.074
TACCATGA	0.0831
CCTGTGAC	0.0823
CCGCGAAG	0.0662

Sequence	binding signal (normalized occupancy)
ATTACGAA	0.076
GCTAAGCC	0.068
ACATTTCG	0.081
TGGAAGAA	0.0762
CTAGGAGA	0.0761
CATTGTAA	0.0824
CAACCTTC	0.0716
CAAAGAAA	0.0734
AGATTTGC	0.0766
GGGACGTA	0.0838
GAACTTGA	0.0751
AGTCTTTG	0.0698
AGGGCTGA	0.0699
TGCAAGAA	0.0714
TCACTGGA	0.0697
CACGTTCC	0.096
GCCGCAAA	0.0648
AAACTGTA	0.072
ACGCGTAA	0.0882
ACTTTTGA	0.0737
GCGTGTCA	0.0867
GCCCGGAA	0.0663
GTGGCCAC	0.0892
AACGAGGA	0.088
CTGCTGTC	0.0731

Sequence	binding signal (normalized occupancy)
AACACATA	0.0823
ATAGTGCG	0.0746
GGACAACA	0.0742
GAAGTTGC	0.0713
ATGTTTAA	0.0805
CTTAAAGC	0.0706
GCAAATAC	0.08
GAACCATA	0.0816
ACTGGAAG	0.0711
GTCTAAGA	0.0715
GCGACCGA	0.0672
GCGGATGA	0.0741
AACGATTG	0.0733
AACTATCC	0.0753
AGGCCACA	0.0798
GAGTTTCC	0.069
ATGACGAC	0.0755
CACGAGCC	0.0812
CCTCCACG	0.0912
CGACCCCA	0.081
CATGTTCC	0.0892
CCGGACTA	0.0746
CTATAGAG	0.0766
TAAGGCAA	0.0748
ACTCCCGC	0.0766

Sequence	binding signal (normalized occupancy)
GAAATCCC	0.0748
CACAAATC	0.079
CTGACCCC	0.0774
ATAAAAAA	0.0761
CCTCTTTC	0.0694
CCCCTACC	0.0822
CACACCAA	0.0763
GATCCACA	0.083
GGACTCCC	0.0701
CGGGTAGA	0.0727
CACTCTAA	0.0758
ACGGAGCT	0.0682
CATATACA	0.0889
TGGTGTAA	0.0786
GACAGAAA	0.0707
ATGGACCA	0.0778
AGGCGTTG	0.0698
ACGTATAC	0.0828
TAGCATGA	0.0921
CAATTAAG	0.0717
GATGTTTA	0.0756
TCAAATCA	0.0886
ATCTGTAA	0.0823
ATAGCGCA	0.0775
TGCCGCCA	0.078

Sequence	binding signal (normalized occupancy)
CTCTCATC	0.0763
GGCCTTAA	0.0691
GCGTACAA	0.0756
CAGTCAAG	0.074
AACACAAT	0.0794
CCTGACAA	0.0804
AGGTAACT	0.0746
ACATCGGA	0.0718
ACCGGATG	0.0731
GCGCGCAC	0.0856
CTGTGAGA	0.0719
AGTCAGTA	0.0696
CCAAATCC	0.0754
CGTCAGTA	0.0677
ATGACTGC	0.0794
ACACAACT	0.0823
CCTCTGCC	0.0692
AGCGGCTG	0.0663
AGGTTGAG	0.0752
TACTTTCA	0.0733
GTTTTGTA	0.0732
CTGCACGA	0.0824
AGCACGGC	0.0739
GATTCAAA	0.0756
GCTCGCGA	0.071

Sequence	binding signal (normalized occupancy)
AGCGTGTA	0.0952
TAAGGATA	0.0782
AAATTTAA	0.068
AAGGGTTA	0.0805
AAAACATT	0.0754
GCTAGTCC	0.0748
AGAGGACT	0.0739
CTGTCGGC	0.0682
GAAAGCTC	0.0682
CGGGCTAC	0.0692
TCGTGGAA	0.0835
GGCCTGGA	0.0719
AAATGAGC	0.0726
GCTTAGCC	0.0683
GCGAGCGC	0.0707
AGCGGGAT	0.0762
ATACCGAT	0.0749
GGGGTTAA	0.0752
TATAAAAA	0.0767
